Where “and” joins values, the source holds several entries; their conditions need not be identical. Identical values can stand only once.
How the values were obtained:
[1] = system: Ramos Burkitt lymphoma cells; assay: Apoptosis assay (Annexin V/PI staining, FACS) on Ramos cells; assay type: cell-based, human; conditions: 48 h, A2 10 μg/ml; for % apoptotic cells: Annexin V positive cells, mean of three experiments
[2] = mouse, in vivo
[3] = system: DOHH2 tumors (human follicular lymphoma); assay: Efficacy in subcutaneous DOHH2 human follicular lymphoma xenograft (Example 3); assay type: in vivo, C.B-17 scid mice; conditions: day 16; for anti-tumor effect in words: DOHH2 tumors; for TGI: median, antibody A2 10 mg/kg i.p. twice weekly, bendamustine 20 mg/kg i.p. two injections
[4] = system: Raji Burkitt lymphoma cells; assay: Apoptosis assay (Annexin V/PI staining, FACS) on Raji cells; assay type: cell-based, human; conditions: 48 h, A2 10 μg/ml; for % apoptotic cells: Annexin V positive cells, mean of three experiments
DoHH2 tumor cells = assay: DoHH2 human xenograft tumor model (Example 2); assay type: in vivo, CB-17 SCID mice; conditions: A2 10 mg/kg twice weekly, bendamustine 10 mg/kg twice weekly ip; present-tense example

B1: A2: mouse-human chimeric Fc-engineered IgG1 CD37 antibody; heavy chain SEQ ID NO:5, light chain SEQ ID NO:6 (antibody)
heavy: AVQLQQSGPELEKPGASVKISCKASGYSFTGYNMNWVKQNNGKSLEWIGNIDPYYGGTTYNRKFKGKATLTVDKSSSTAYMQLKSLTSEDSAVYYCARSVGPMDYWGQGTSVTVSSASTKGPSVFPLAPSSKSTSGGTAALGCLVKDYFPEPVTVSWNSGALTSGVHTFPAVLQSSGLYSLSSVVTVPSSSLGTQTYICNVNHKPSNTKVDKRV[human IgG1 Fc with changes omitted here]
light: DIQMTQSPASLSASVGETVTITCRTSENVYSYLAWYQQKQGKSPQLLVSFAKTLAEGVPSRFSGSGSGTQFSLKISSLQPEDSGSYFCQHHSDNPWTFGGGTELEIKRTVAAPSVFIFPPSDEQLKSGTASVVCLLNNFYPREAKVQWKVDNALQSGNSQESVTEQDSKDSTYSLSSTLTLSKADYEKHKVYACEVTHQGLSSPVTKSFNRGEC
apoptosis induction, mAb A2 alone ([1]; no bendamustine): 9% | % apoptotic cells ([1]; bendamustine 100 μM column): 9% | % apoptotic cells ([1]; bendamustine 400 μM column): 9% | tolerability in words [2]: well tolerated | anti-tumor effect in words ([3]; listed as Antibody A2): significantly inhibited growth | anti-tumor effect in words ([3]; listed as antibody A2): growth inhibited | CR (complete tumor regression) ([3]; 7 mice per group): 0 x/7 | PR (partial tumor regression) ([3]; 7 mice per group): 0 x/7 | TGI ([3]; listed as Antibody A2): 73% | TGI ([3]; listed as antibody A2): 73% and 72% | apoptosis induction, mAb A2 alone ([4]; no bendamustine): 12% | % apoptotic cells ([4]; bendamustine 200 μM column): 12% | % apoptotic cells ([4]; bendamustine 400 μM column): 12% | anti-tumor effect in words (DoHH2 tumor cells): significant anti-tumor effect

Reference: patent US20150231242A1, “COMBINATION OF CD37 ANTIBODIES WITH BENDAMUSTINE” (Boehringer Ingelheim International GmbH, priority 2012, published 2015)
